Hit rate of the full screen: of about 210,000 compounds, about 5,900 (2.8%) were called active. The shares of active, inactive and inconclusive entries below differ from those in the screen. The call rests on the fitted dose curve; in most records, active means well fitted activation curve with a large enough effect; inconclusive means small, poorly fitted or top-dose-only effect; inactive means no such curve, though single readings can be large or run the other way. Where the call is inconclusive, the potency comes from a doubtful curve fit.
Test: qHTS Assay for Enhancers of SMN2 Splice Variant Expression; further: nearly all actives have a fitted effect of over 55% in size; on activity change, positive = activation: % of control where 0% means no effect
Conditions: HEK293 SMN2-luciferase splicing reporter, luminescence, 30-36 h; activity change, positive = activation: at 46.1 µM (top of the series)
Outline: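 qHTS luciferase splicing reporter: luminescence rises when SMN2 exon 7 is included in transfected HEK293 cells. Compound exposure lasted 30-36 h at 37C, with 4.5 mM final sodium butyrate as control, followed by a ONE-Glo read.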
Potency means the concentration at half of the fitted maximal effect; tags describe the fitted curve by direction and shape.

Row | SMILES | Potency | activity change, positive = activation
1 | O=C(COc1ccccc1)NC(=S)N1CCc2ccccc21 | inconclusive: 14.1 µM [activator, single point] | –
2 | CCCC(=O)N1CCc2cc(OC)c(OC)cc2C1COc1ccc2c(C)cc(=O)oc2c1 (centres undefined) | – | inactive: 2.26%
3 | CC(=O)c1c(C)[nH]c(C2=NNC(=NC(C)(C)C)SC2)c1C | active: 12.6 µM | –
4 | CN1CCN(c2ccccc2NC(=O)c2ccc(-c3cccc([N+](=O)[O-])c3)o2)CC1 | – | inactive: -1.02%
5 | COc1ccc(NC(=O)c2nn(C)c(=O)c3ccccc23)cc1S(=O)(=O)Nc1ccccc1Cl | inconclusive: 3.55 µM [activator, partial curve, poor fit] | –
6 | COc1ccc(C(=O)N(CN2CCCC2=O)c2ccccc2OC)cc1OC | inconclusive: 0.891 µM [activator, full curve, poor fit] | –
7 | c1ccc(C2=Nc3ccccc3SC2c2nc3ccccc3[nH]2)cc1 (centres undefined) | inconclusive: 22.4 µM [activator, partial curve, poor fit] | –
8 | O=C(c1ccco1)N1CCN(C(=O)C2c3ccccc3Oc3ccccc32)CC1 | inconclusive: 0.0045 µM [activator, full curve, poor fit] | –
9 | Nc1c2c(=O)oc(-c3ccccc3)cc2nn1-c1ccccc1 | active: 12.6 µM | –
10 | COc1ccc(-c2noc(-c3cccc(Cl)c3)n2)cc1OC | inconclusive: 35.5 µM [activator, single point] | –
11 | CC(=O)c1cnc(Nc2cccc(Cl)c2Cl)s1 | active: 12.6 µM | –
12 | Cc1ccc(-c2cc(C(F)(F)F)n3nc(-c4cccc(Br)c4)cc3n2)cc1 | – | inactive: -6.77%
13 | C/C(CC(=O)Nc1cccnc1)=N\NC(=O)C(=O)Nc1cccc(C)c1 | – | inactive: 14.8%
14 | N#CCSc1nnc(Nc2ccccc2)s1 | inconclusive: 5.62 µM [activator, single point] | –
15 | Cn1c(-c2ccco2)nc2cc3ccccc3cc21 | active: 2.51 µM | –
16 | O=C(/C=C/Nc1cccc(C(F)(F)F)c1)c1ccco1 | inconclusive: 11.2 µM [activator, partial curve] | –
17 | Cc1nn2c3c(cnc2c1-c1ccc(Cl)cc1)C(=O)CC(c1ccc(C(C)C)cc1)C3 (centres undefined) | – | inactive: 5.85%
18 | CCc1ccc(NS(=O)(=O)c2ccc3[nH]cc(C(=O)N4CCc5ccccc54)c(=O)c3c2)cc1 | inconclusive: 12.6 µM [activator, partial curve, poor fit] | –
19 | CC(C)CCNC(=O)COc1ccc2c(c1)C(=O)CC(C)(C)O2 | – | inactive: 17%
20 | CNC(=O)C1CCN(C(=O)c2ccc(-c3ccccc3)cc2)CC1 | inconclusive: 2.82 µM [activator, full curve, poor fit] | –
21 | Cc1ccc2nc(NCc3ccccc3)[nH]c2c1 | active: 8.91 µM | –
22 | CCCCC(=O)Nc1sc2c(c1C#N)CC(C)(C)OC2 | inconclusive: 11.2 µM [activator, partial curve] | –
23 | O=C(O)COn1c(-c2ccccc2)nc2ccc([N+](=O)[O-])cc21 | – | inactive: 28.9%
24 | CCNc1ccc(C(=O)Nc2ccc3nc(C)sc3c2)cc1[N+](=O)[O-] | inconclusive: 0.0447 µM [activator, full curve, poor fit] | –
25 | CCCOP(=O)(OCCC)c1nc(-c2ccccc2)oc1NCc1ccccc1 | – | inactive: -5.98%

Row | SMILES | Potency | activity change, positive = activation
26 | Cc1cc(C=C2C(=O)c3ccccc3C2=O)c(C)n1C | inconclusive: 35.5 µM [activator, single point] | –
27 | O=C(c1ccco1)N1CCC2(CCCN(c3ccncc3)C2)CC1 | – | inactive: -29.1%
28 | CSc1ccccc1C(=O)N1CCN(c2ncccn2)CC1 | – | inactive: 5.32%
29 | O=C(c1ccc2c(c1)OCCCO2)c1cccs1 | active: 12.6 µM | –
30 | CCNC(=S)N(CCc1cccc(C)c1)Cc1cc2cc(OC)c(OC)cc2[nH]c1=O | – | inactive: -12.2%
31 | CC(C)c1nnc(NC(=O)CSc2ccccc2)s1 | inconclusive: 0.316 µM [activator, full curve, poor fit] | –
32 | Cc1ccc(NC(=O)c2cc3nc(C)cc(C)n3n2)cc1 | active: 11.2 µM | –
33 | COc1ccc(C2/C(=C(/O)c3ccc4c(c3)CC(C)O4)C(=O)C(=O)N2CCN2CCOCC2)cc1 (centres undefined) | inconclusive: 17.8 µM [activator, single point] | –
34 | Nc1nnc(SCC(=O)Nc2cccc(F)c2)s1 | inconclusive: 5.62 µM [activator, partial curve] | –
35 | O=C(NCC(=O)N1CCCCC1)c1ccc(Cl)cc1Cl | inconclusive: 11.2 µM [activator, partial curve, poor fit] | –
36 | O=[N+]([O-])c1cccc(/C=N/Nc2nccnc2Cl)c1 | inconclusive: 35.5 µM [activator, single point] | –
37 | NS(=O)(=O)c1ccc(NC(=O)COC(=O)CNC(=O)C23CC4CC(CC(C4)C2)C3)cc1 | – | inactive: 1.57%
38 | c1ccc(Cn2nnnc2C(c2ccccn2)N2CCOCC2)cc1 (centres undefined) | inconclusive: 0.398 µM [activator, full curve, poor fit] | –
39 | Cc1cc(/C=C2/C(=O)N(C)C(=S)N2C)c(C)n1C1CC1 | active: 12.6 µM | –
40 | COc1ccc(S(=O)(=O)N(C)CC(=O)Nc2ccc3c(c2)OCCO3)cc1OC | inconclusive: 0.0708 µM [activator, full curve] | –
41 | O=C(COC(=O)C12CC3CC(CC(C3)C1)C2)NCCCc1ccccc1 | inconclusive: 1.41 µM [activator, full curve, poor fit] | –
42 | COc1ccc(CCNC(=O)c2csc3c2CCCCC3)c(OC)c1 | inconclusive: 28.2 µM [activator, single point] | –
43 | CCOC(=O)CNC(=O)C(=O)c1c(O)[nH]c2ccccc12 | inconclusive: 15.8 µM [activator, partial curve] | –
44 | CCC(=O)N1CCC(c2ccc(OC)cc2)=N1 | inconclusive: 0.0045 µM [activator, full curve, poor fit] | –
45 | Cc1cccc(NS(=O)(=O)c2ccc3c(c2)OCCO3)c1 | active: 14.1 µM | –
46 | CCc1c(O)nc(SCC(=O)N2CCOCC2)n(-c2ccccc2)c1=O | inconclusive: 5.62 µM [activator, partial curve, poor fit] | –
47 | Cc1cccc(C)c1NC(=O)C(c1ccccc1)N1CC(=O)Nc2ccccc21 (centres undefined) | inconclusive: 0.0398 µM [activator, full curve] | –
48 | Cc1ccccc1C(=O)Nn1cnc2ccccc2c1=O | inconclusive: 14.1 µM [activator, single point] | –
49 | CC(=O)Nc1ccc(C(=O)Nc2ccc3c(c2)OCO3)cc1 | – | inactive: 3.11%
50 | CSc1ccc(C2c3[nH]c4ccccc4c3CCN2C(=O)c2cc(C)n(C)n2)cc1 (centres undefined) | inconclusive: 35.5 µM [activator, single point] | –

Row | SMILES | Potency | activity change, positive = activation
51 | O=c1c2ccccc2nnn1COc1cccc(Cl)c1 | inconclusive: 15.8 µM [activator, single point] | –
52 | CC(C)OC(=O)/C(C#N)=C/c1ccc(-c2ccc(SC(F)F)cc2)o1 | inconclusive: 0.251 µM [activator, full curve] | –
53 | CC/C(O)=C1\C(=O)CCCC1=NCCc1nc2ccccc2[nH]1 | – | inactive: -23.5%
54 | O=C(NCc1ccccn1)c1cc(-c2ccccc2)on1 | inconclusive: 35.5 µM [activator, partial curve, poor fit] | –
55 | O=C(CCS(=O)(=O)Cc1ccc(Cl)cc1)NCCCN1CCN(c2ccccc2F)CC1 | – | inactive: -65.3%
56 | COc1cccc(Nc2nc3ccc(OC)cc3s2)c1 | active: 20 µM | –
57 | Cc1cc(C(=O)Nc2ccc3c(c2)OCCO3)c(C)o1 | active: 11.2 µM | –
58 | Cc1ccc(C)c(C(=O)CSc2nc(-c3ccccc3)nc3c2CCCC3)c1 | – | inactive: -6.49%
59 | COc1ccc(N2CCN(C(=O)CSc3nnc(-c4cc5ccccc5cc4O)n3C)CC2)cc1 | – | inactive: -52.7%
60 | O=C(Nc1ccccc1)c1cc2ccccc2c(=O)s1 | inconclusive: 15.8 µM [activator, single point] | –
61 | CCn1c(C)nc2cc(C(=O)N=Nc3c(O)[nH]c4ccccc34)ccc21 | – | inactive: 55.6%
62 | CCC(=O)O[C@@H]1[C@H](C)O[C@H](O[C@H]2[C@@H](N(C)C)[C@H](O)[C@@H](O[C@@H]3[C@@H](CC=O)C[C@@H](C)[C@@H](O)/C=C\C=C/C[C@@H](C)OC(=O)C[C@@H](OC(=O)CC)[C@H]3OC)O[C@H]2C)C[C@]1(C)O | – | inactive: -20.8% [at 20.6 µM]
63 | CCc1ccccc1NS(=O)(=O)c1cc(C)ccc1OC | inconclusive: 3.16 µM [activator, single point] | –
64 | Cc1nc2cc(-c3ccc(Cl)cc3)nn2c(C)c1CCC(=O)N1CCN(c2ccccc2)CC1 | – | inactive: 2.52%
65 | CCC(=O)NNc1ncnc2c1cnn2-c1ccccc1 | – | inactive: 18.9%
66 | CCC1=C(C(=O)OC)C(c2cc(OC)ccc2OC)C(C#N)=C(N)O1 (centres undefined) | inconclusive: 28.2 µM [activator, partial curve, poor fit] | –
67 | CCOc1ccc(Cc2n[nH]c(=S)n2N)cc1 | inconclusive: 0.0178 µM [activator, partial curve, poor fit] | –
68 | CCOC(=O)c1cc(-c2ccccc2)sc1NC(=O)C(C)(C)C | – | inactive: -25%
69 | COC(=O)c1cc(C)sc1NC(=O)CCCC(=O)O | inconclusive: 14.1 µM [activator, partial curve, poor fit] | –
70 | Cc1ccc(-c2csc(N(CCCN3CCOCC3)C(=O)c3ccco3)n2)cc1 | – | inactive: -41.2%
71 | Cc1ccc(-c2noc(COc3ccc4c(c3)OCO4)n2)cc1 | inconclusive: 7.08 µM [activator, partial curve, poor fit] | –
72 | CC(=O)Nc1cccc(C(=O)/C=C/c2ccc(F)cc2)c1 | – | inactive: -11.5%
73 | COc1cccc(-n2c(Cn3nc(C(F)(F)F)cc3C)n[nH]c2=S)c1 | inconclusive: 5.62 µM [activator, single point] | –
74 | Cc1ccc(-c2nc3cc(NC(=O)C(C)C)ccc3o2)cc1C | inconclusive: 0.501 µM [activator, full curve] | –

Source: PubChem BioAssay AID1458 (National Center for Advancing Translational Sciences (NCATS), 2008)
